This is one part of the list. Most values come without repeats; read them as rough.
How the values were obtained:
Test in all cases: cell count relative to DMSO control; melanoma cells; higher = more viable cells
Details in all cases: library dose: low library concentration; 72 h
[1] = test system: WM115
[2] = test system: WM1716
[3] = test system: WM1745
[4] = test system: WM3526
[5] = test system: WM3619
[6] = test system: WM451Lu
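Note: cell number obtained by counting DAPI-stained nuclei in high-throughput microscope images with image analysis software, screen run in 1,536-well plates.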

Compound | cell count [1] | cell count [2] | cell count [3] | cell count [4] | cell count [5] | cell count [6]
CC[C@]1(O)C[C@H]2CN(CCc3c([nH]c4ccccc34)[C@@](C(=O)OC)(c3cc4c(cc3OC)N(C=O)[C@H]3[C@@](O)(C(=O)OC)[C@H](OC(C)=O)[C@]5(CC)C=CCN6CC[C@]43[C@@H]65)C2)C1 [vincristine] + CCCCCCCCCCCC1=C(O)C(=O)C=C(O)C1=O [Embelin] (first compound 0.0001 µM, partner dose 1.2 µM) | 44.2% | 35.5% | 65% | 67.2% | 52.5% | 50.1%
CC[C@]1(O)C[C@H]2CN(CCc3c([nH]c4ccccc34)[C@@](C(=O)OC)(c3cc4c(cc3OC)N(C=O)[C@H]3[C@@](O)(C(=O)OC)[C@H](OC(C)=O)[C@]5(CC)C=CCN6CC[C@]43[C@@H]65)C2)C1 [vincristine] + O=C1NC(=O)/C(=C/c2ccc(-c3ccc(F)cc3O)o2)S1 [AS252424] (first compound 0.0001 µM, partner dose 1 µM) | 60% | 41.7% | 85.4% | 75.4% | 93.3% | 62.7%
CC[C@]1(O)C[C@H]2CN(CCc3c([nH]c4ccccc34)[C@@](C(=O)OC)(c3cc4c(cc3OC)N(C=O)[C@H]3[C@@](O)(C(=O)OC)[C@H](OC(C)=O)[C@]5(CC)C=CCN6CC[C@]43[C@@H]65)C2)C1 [vincristine] + COc1ccc(COc2ccc(Cc3cnc(N)nc3N)cc2OC)cc1 [GW2580] (first compound 0.0001 µM, partner dose 1 µM) | 78.2% | 82.8% | 110% | 73.8% | 90% | 94.5%
N#CC[C@H](C1CCCC1)n1cc(-c2ncnc3[nH]ccc23)cn1 [ruxolitinib] + COc1ccc(Cl)c(Nc2nc3ccccc3nc2NS(=O)(=O)c2cccc(NC(=O)C(C)(C)N)c2)c1 [XL147] (first compound 1 µM, partner dose 0.8 µM) | 104% | 115% | 111% | 107% | 96.1% | 125%
Cc1cc(Nc2cc(N3CCN(C)CC3)nc(Sc3ccc(NC(=O)C4CC4)cc3)n2)n[nH]1 [Tozasertib] + C[C@@H](N)c1ccc(C(=O)Nc2ccnc3[nH]ccc23)cc1 [RKI983] (first compound 0.006 µM, partner dose 0.4 µM) | 109% | 56.1% | 99.7% | 111% | 132% | 60.5%
CC[C@]1(O)C[C@H]2CN(CCc3c([nH]c4ccccc34)[C@@](C(=O)OC)(c3cc4c(cc3OC)N(C=O)[C@H]3[C@@](O)(C(=O)OC)[C@H](OC(C)=O)[C@]5(CC)C=CCN6CC[C@]43[C@@H]65)C2)C1 [vincristine] + CO[C@H]1C[C@@H]2CC[C@@H](C)[C@@](O)(O2)C(=O)C(=O)N2CCCC[C@H]2C(=O)O[C@H]([C@H](C)C[C@@H]2CC[C@@H](OCCO)[C@H](OC)C2)CC(=O)[C@H](C)/C=C(\C)[C@@H](O)[C@@H](OC)C(=O)[C@H](C)C[C@H](C)/C=C/C=C/C=C/1C [everolimus] (first compound 0.0001 µM, partner dose 0.02 µM) | 41.8% | 36.6% | 72.4% | 56.8% | 43.4% | 43.1%
CC[C@]1(O)C[C@H]2CN(CCc3c([nH]c4ccccc34)[C@@](C(=O)OC)(c3cc4c(cc3OC)N(C=O)[C@H]3[C@@](O)(C(=O)OC)[C@H](OC(C)=O)[C@]5(CC)C=CCN6CC[C@]43[C@@H]65)C2)C1 [vincristine] + CC(=O)O[C@@]12CO[C@@H]1C[C@H](O)[C@@]1(C)C(=O)[C@H](O)C3=C(C)[C@@H](OC(=O)[C@H](O)[C@@H](NC(=O)OC(C)(C)C)c4ccccc4)C[C@@](O)([C@@H](OC(=O)c4ccccc4)[C@H]21)C3(C)C [Docetaxel] (first compound 0.0001 µM, partner dose 0.0001 µM) | 47% | 34.6% | 63.8% | 53.7% | 54% | 57.5%
CC[C@]1(O)C[C@H]2CN(CCc3c([nH]c4ccccc34)[C@@](C(=O)OC)(c3cc4c(cc3OC)N(C=O)[C@H]3[C@@](O)(C(=O)OC)[C@H](OC(C)=O)[C@]5(CC)C=CCN6CC[C@]43[C@@H]65)C2)C1 [vincristine] + Cc1cc(N2CCOCC2)cc2[nH]c(-c3c(NC[C@@H](O)c4cccc(Cl)c4)cc[nH]c3=O)nc12 [BMS536924] (first compound 0.0001 µM, partner dose 0.2 µM) | 50.5% | 44.6% | 73.5% | 59% | 53.2% | 34.3%
N#CC[C@H](C1CCCC1)n1cc(-c2ncnc3[nH]ccc23)cn1 [ruxolitinib] + CCN(CC)CCCCNc1ncc2cc(-c3cc(OC)cc(OC)c3)c(NC(=O)NC(C)(C)C)nc2n1 [PD173074] (first compound 1 µM, partner dose 0.1 µM) | 111% | 108% | 104% | 107% |  | 121%
N#CC[C@H](C1CCCC1)n1cc(-c2ncnc3[nH]ccc23)cn1 [ruxolitinib] + O=C(Nc1cccc(Cl)c1)Nc1ncc(CCNc2ncnc3ccsc23)s1 [SNS314] (first compound 1 µM, partner dose 0.0008 µM) | 84.3% |  | 111% | 106% | 122% | 108%
CC[C@]1(O)C[C@H]2CN(CCc3c([nH]c4ccccc34)[C@@](C(=O)OC)(c3cc4c(cc3OC)N(C=O)[C@H]3[C@@](O)(C(=O)OC)[C@H](OC(C)=O)[C@]5(CC)C=CCN6CC[C@]43[C@@H]65)C2)C1 [vincristine] + OCCn1cc(-c2cnc3nnn(Cc4ccc5ncccc5c4)c3n2)cn1 [PF04217903] (first compound 0.0001 µM, partner dose 1 µM) | 65.8% | 62.4% | 97.8% | 93.3% | 85.6% | 74.3%
N#CC[C@H](C1CCCC1)n1cc(-c2ncnc3[nH]ccc23)cn1 [ruxolitinib] + C[C@]1(O)C[C@@H](c2nc(-c3ccc4ccc(-c5ccccc5)nc4c3)c3c(N)nccn32)C1 [OSI906] (first compound 1 µM, partner dose 0.4 µM) | 112% | 98.9% | 87.5% |  | 103% | 99.8%
N#CC[C@H](C1CCCC1)n1cc(-c2ncnc3[nH]ccc23)cn1 [ruxolitinib] + C=CCNC1=C2C[C@@H](C)C[C@H](OC)[C@H](O)[C@@H](C)/C=C(\C)[C@H](OC(N)=O)[C@@H](OC)/C=C\C=C(/C)C(=O)NC(=CC1=O)C2=O [Tanespimycin] (first compound 1 µM, partner dose 0.002 µM) |  | 92% | 74.3% | 92.1% | 64.1% | 102%
N#CC[C@H](C1CCCC1)n1cc(-c2ncnc3[nH]ccc23)cn1 [ruxolitinib] + COc1cc2ncnc(Nc3ccc(Oc4ccccc4)cc3)c2cc1OC [SrcI1] (first compound 1 µM, partner dose 2 µM) |  | 94.5% | 81.9% | 90.6% | 103% | 114%
CC[C@]1(O)C[C@H]2CN(CCc3c([nH]c4ccccc34)[C@@](C(=O)OC)(c3cc4c(cc3OC)N(C=O)[C@H]3[C@@](O)(C(=O)OC)[C@H](OC(C)=O)[C@]5(CC)C=CCN6CC[C@]43[C@@H]65)C2)C1 [vincristine] + CC(C)C[C@H](NC(=O)[C@H](Cc1ccccc1)NC(=O)c1cnccn1)B(O)O [Bortezomib] (first compound 0.0001 µM, partner dose 0.001 µM) | 56.2% | 29.4% | 64.5% | 72.1% | 28.1% | 48.5%
CC[C@]1(O)C[C@H]2CN(CCc3c([nH]c4ccccc34)[C@@](C(=O)OC)(c3cc4c(cc3OC)N(C=O)[C@H]3[C@@](O)(C(=O)OC)[C@H](OC(C)=O)[C@]5(CC)C=CCN6CC[C@]43[C@@H]65)C2)C1 [vincristine] + c1cc(-c2cnn3cc(-c4ccc(OCCN5CCCCC5)cc4)cnc23)ccn1 [Dorsomorphin] (first compound 0.0001 µM, partner dose 0.4 µM) | 39.8% | 39.6% | 70.1% | 61.8% | 48.9% | 46.2%
N#CC[C@H](C1CCCC1)n1cc(-c2ncnc3[nH]ccc23)cn1 [ruxolitinib] + Nc1ccn([C@@H]2O[C@H](CO)[C@@H](O)C2(F)F)c(=O)n1 [gemcitabine] (first compound 1 µM, partner dose 0.0004 µM) | 95.4% | 97.6% | 79.5% | 105% | 65.4% | 93.9%
N#CC[C@H](C1CCCC1)n1cc(-c2ncnc3[nH]ccc23)cn1 [ruxolitinib] + Cc1cn(-c2cc(NC(=O)c3ccc(C)c(Nc4nccc(-c5cccnc5)n4)c3)cc(C(F)(F)F)c2)cn1 [nilotinib] (first compound 1 µM, partner dose 0.2 µM) | 114% | 96.1% | 85.7% |  | 99.5% | 87.5%
Cc1cc(Nc2cc(N3CCN(C)CC3)nc(Sc3ccc(NC(=O)C4CC4)cc3)n2)n[nH]1 [Tozasertib] + COc1cc(Nc2ncc(F)c(Nc3ccc4c(n3)NC(=O)C(C)(C)O4)n2)cc(OC)c1OC [Tamatinib] (first compound 0.006 µM, partner dose 0.4 µM) | 84.1% | 92.4% | 40% | 89.7% | 82.2% | 57.2%
Cc1cc(Nc2cc(N3CCN(C)CC3)nc(Sc3ccc(NC(=O)C4CC4)cc3)n2)n[nH]1 [Tozasertib] + CN(C)S(=O)(=O)c1ccc2c(c1)/C(=C/c1cc3c([nH]1)CCCC3)C(=O)N2 [SU6656] (first compound 0.006 µM, partner dose 0.4 µM) | 79.3% | 102% | 79.1% | 74.4% | 106% | 91.4%
Cc1cc(Nc2cc(N3CCN(C)CC3)nc(Sc3ccc(NC(=O)C4CC4)cc3)n2)n[nH]1 [Tozasertib] + O=C(O)[C@@H]1[O][Sb](=[O])([O][Sb]2(=[O])[O][C@H]([C@H](O)CO)[C@H](O)[C@H](C(=O)O)[O]2)[O][C@H]([C@H](O)CO)[C@@H]1O [stibogluconate] (first compound 0.006 µM, partner dose 2 µM) | 106% | 97% | 86.3% | 93.4% | 89.6% | 111%
